The experiment has as its system Saccharomyces cerevisiae IFO 0203. Kind of experiment: Evaluation test on antifungal activity (paper disk, inhibition zone diameter). To be noted: 26° C., one to two days.

For the compound `COc1ccnc(C(=O)N[C@H]2COC(=O)[C@H](Cc3ccccc3)[C@@H](OC(=O)C(C)C)[C@H](C)OC2=O)c1OC(=O)CCCCCC(=O)O` [Ex. 33, (2R,3R,4S,7S)-7-(3-(6-Carboxyhexanoyloxy)-4-methoxy-picolinylamino)-2-benzyl-5,9-dioxa-3-isobutyryloxy-4-methyl-1,6-cyclononanedione], the inhibition zone diameter is, setting by setting: (amount of sample used 0.025 μg) 12 mm; (amount of sample used 0.05 μg) 16 mm; (amount of sample used 0.125 μg) 21 mm; (amount of sample used 0.25 μg) 24 mm.
For `COC(=O)CCC(=O)Oc1c(OC)ccnc1C(=O)N[C@H]1COC(=O)[C@H](Cc2ccccc2)[C@@H](OC(=O)C(C)C)[C@H](C)OC1=O` [Ex. 21, (2R,3R,4S,7S)-7-(3-(3-Methoxycarbonylpropionyloxy)-4-methoxypicolinylamino)-2-benzyl-5,9-dioxa-3-isobutyryl-oxy-4-methyl-1,6-cyclononanedione] the same measures were 15 mm, 19 mm, 22 mm and 25 mm.
For `COc1ccnc(C(=O)N[C@H]2COC(=O)[C@H](Cc3ccccc3)[C@@H](OC(=O)C(C)C)[C@H](C)OC2=O)c1OC(=O)CCCC(=O)OCc1ccccc1` [Ex. 28, (2R,3R,4S,7S)-7-(3-(4-Benzyloxycarbonylbutyryloxy)-4-methoxypicolinylamino)-2-benzyl-5,9-dioxa-3-isobutyryl-oxy-4-methyl-1,6-cyclononanedione] the same measures were 11 mm, 13 mm, 15 mm and 18 mm.
For `COc1ccnc(C(=O)N[C@H]2COC(=O)[C@H](Cc3ccccc3)[C@@H](OC(=O)C(C)C)[C@H](C)OC2=O)c1OC(=O)[C@H](C)NC(=O)OCc1ccccc1` [Ex. 35, (2R,3R,4S,7S)-7-(3-(N-Carbobenzyloxy-L-alanyl)oxy-4-methoxypicolinylamino)-2-benzyl-5,9-dioxa-3-isobutyryl-oxy-4-methyl-1,6-cyclononanedione] the same measures were 12 mm, 17 mm, 22 mm and 26 mm.
Regarding `CC(C)C(=O)O[C@H]1[C@H](C)OC(=O)[C@@H](NC(=O)c2nc3ccccc3nc2O)COC(=O)[C@@H]1Cc1ccccc1` [Ex. 8, (2R,3R,4S,7S)-7-(3-Hydroxy-2-quinoxalinecarboxylamino)-2-benzyl-5,9-dioxa-3-isobutyryloxy-4-methyl-1,6-cyclononanedione], the inhibition zone diameter amounted to 14 mm (amount of sample used 0.025 μg), 18 mm (amount of sample used 0.05 μg), 20 mm (amount of sample used 0.125 μg) and 24 mm (amount of sample used 0.25 μg).
Taken in the same sequence, the figures for “(2R,3R,4S,7S)-7-(3-Diphenyphosphoryloxy-4-methoxy-picolinylamino)-2-benzyl-5,9-dioxa-3-isobutyryloxy-4-methyl-1,6-cyclononanedione [Ex. 36]” were 12 mm, 13 mm, 18 mm and 19 mm.
With `CC(C)C(=O)O[C@H]1[C@H](C)OC(=O)[C@@H](NC(=O)c2cccc(NC=O)c2O)COC(=O)[C@@H]1Cc1ccccc1` [Ex. 42, (2R,3R,4S,7S)-7-(3-Formylaminosalicyl)amino-2-benzyl-5,9-dioxa-3-isobutyryloxy-4-methyl-1,6-cyclononanedione], the inhibition zone diameter reads like this: (amount of sample used 0.025 μg) 8 mm; (amount of sample used 0.05 μg) 12 mm; (amount of sample used 0.125 μg) 16 mm; (amount of sample used 0.25 μg) 17 mm.
Taken in the same sequence, the figures for `COc1ccc(O)c(C(=O)N[C@H]2COC(=O)[C@H](Cc3ccccc3)[C@@H](OC(=O)C(C)C)[C@H](C)OC2=O)n1` [Ex. 17, (2R,3R,4S,7S)-7-(3-Hydroxy-6-methoxypicolinyl-amino)-2-benzyl-5,9-dioxa-3-isobutyryloxy-4-methyl-1,6-cyclononanedione] were 16 mm, 19 mm, 24 mm and 27 mm.
As to `CC(C)C(=O)O[C@H]1[C@H](C)OC(=O)[C@@H](NC(=O)c2cccnc2O)COC(=O)[C@@H]1Cc1ccccc1` [Ex. 4, (2R,3R,4S,7S)-7-(2-Hydroxynicotinylamino)-2-benzyl-5,9-dioxa-3-isobutyryloxy-4-methyl-1,6-cyclononanedione], the inhibition zone diameter is, setting by setting: (amount of sample used 0.025 μg) 0 mm; (amount of sample used 0.05 μg) 12 mm; (amount of sample used 0.125 μg) 16 mm; (amount of sample used 0.25 μg) 17 mm.
Taken in the same sequence, the figures for `COc1ccnc(C(=O)N[C@H]2COC(=O)[C@H](Cc3ccccc3)[C@@H](OC(=O)C(C)C)[C@H](C)OC2=O)c1OC(=O)CCCCCCCCC(=O)O` [Ex. 34, (2R,3R,4S,7S)-7-(3-(9-Carboxynonanoyloxy)-4-methoxy-picolinylamino)-2-benzyl-5,9-dioxa-3-isobutyryloxy-4-methyl-1,6-cyclononanedione] were 12 mm, 15 mm, 20 mm and 23 mm.
In the case of `COc1ccnc(C(=O)N[C@H]2COC(=O)[C@H](Cc3ccc([N+](=O)[O-])cc3)[C@@H](OC(=O)C(C)C)[C@H](C)OC2=O)c1O` [Ex. 53, (2R,3R,4S,7S)-7-(3-Hydroxy-4-methoxypicolinyl)amino-2-(4-nitrobenzyl)-5,9-dioxa-3-isobutyryloxy-4-methyl-1,6-cyclononanedione], the inhibition zone diameter was found to be 12 mm (amount of sample used 0.025 μg), 15 mm (amount of sample used 0.05 μg), 18 mm (amount of sample used 0.125 μg) and 20 mm (amount of sample used 0.25 μg).
Taken in the same sequence, the figures for `CC(C)C(=O)O[C@H]1[C@H](C)OC(=O)[C@@H](NC(=O)c2cccc(N(C)C)c2O)COC(=O)[C@@H]1Cc1ccccc1` [Ex. 49, (2R,3R,4S,7S)-7-(3-(N,N-Dimethylamino)salicyl)amino-2-benzyl-5,9-dioxa-3-isobutyryloxy-4-methyl-1,6-cyclo-nonanedione] were 8 mm, 8 mm, 12 mm and 14 mm.
For `COC(=O)CCCC(=O)Oc1c(OC)ccnc1C(=O)N[C@H]1COC(=O)[C@H](Cc2ccccc2)[C@@H](OC(=O)C(C)C)[C@H](C)OC1=O` [Ex. 23, (2R,3R,4S,7S)-7-(3-(4-Methoxycarbonylbutyryloxy)-4-methoxypicolinylamino)-2-benzyl-5,9-dioxa-3-isobutyryl-oxy-4-methyl-1,6-cyclononanedione] the same measures were 14 mm, 17 mm, 22 mm and 24 mm.
Taken in the same sequence, the figures for `CC(C)C(=O)O[C@H]1[C@H](C)OC(=O)[C@@H](NC(=O)c2ccccc2O)COC(=O)[C@@H]1Cc1ccccc1` [Ex. 39, (2R,3R,4S,7S)-7-Salicylamino-2-benzyl-5,9-dioxa-3-isobutyryloxy-4-methyl-1,6-cyclononanedione] were 8 mm, 8 mm, 11 mm and 12 mm.
Take `COc1ccnc(C(=O)N[C@H]2COC(=O)[C@H](Cc3ccccc3)[C@@H](OC(=O)C(C)C)[C@H](C)OC2=O)c1OC(=O)CCCCCC(=O)OCc1ccccc1` [Ex. 30, (2R,3R,4S,7S)-7-(3-(6-Benzyloxycarbonylhexanoyloxy)-4-methoxypicolinylamino)-2-benzyl-5,9-dioxa-3-isobutyryl-oxy-4-methyl-1,6-cyclononanedione]: the inhibition zone diameter is listed as 8 mm (amount of sample used 0.025 μg), 10 mm (amount of sample used 0.05 μg), 15 mm (amount of sample used 0.125 μg) and 18 mm (amount of sample used 0.25 μg).
In the case of `COc1ccnc(C(=O)N[C@H]2COC(=O)[C@H](Cc3ccccc3)[C@@H](OC(=O)C(C)C)[C@H](C)OC2=O)c1OC(C)=O` [Ex. 18, (2R,3R,4S,7S)-7-(3-Acetoxy-4-methoxypicolinylamino)-2-benzyl-5,9-dioxa-3-isobutyryloxy-4-methyl-1,6-cyclo-nonanedione], the inhibition zone diameter is, setting by setting: (amount of sample used 0.025 μg) 10 mm; (amount of sample used 0.05 μg) 12 mm; (amount of sample used 0.125 μg) 14 mm; (amount of sample used 0.25 μg) 18 mm.
Taken in the same sequence, the figures for `COc1ccnc(C(=O)N[C@H]2COC(=O)[C@H](Cc3ccccc3)[C@@H](OC(=O)C(C)C)[C@H](C)OC2=O)c1O` [UK-2A, reference compound] were 19 mm, 22 mm, 26 mm and 26 mm.
For `COc1ccnc(C(=O)N[C@H]2COC(=O)[C@H](Cc3ccc(N(C)C)cc3)[C@@H](OC(=O)C(C)C)[C@H](C)OC2=O)c1O` [Ex. 56, (2R,3R,4S,7S)-7-(3-Hydroxy-4-methoxypicolinyl)amino-2-(4-(N,N-dimethylamino)benzyl)-5,9-dioxa-3-isobutyryloxy-4-methyl-1,6-cyclononanedione] the same measures were 0 mm, 11 mm, 15 mm and 19 mm.

The values are drawn from US7250389B1, “Antifungal compound and process for producing the same” (Meiji Seika Kaisha, Ltd., priority 1998, dated 2007).
